According to article PMC9645710, “Cryo-EM structures of peripherin-2 and ROM1 suggest multiple roles in photoreceptor membrane morphogenesis” (Science Advances, 2022):

Target: the molecule itself
Test: SEC; PRPH2 and ROM1 (wild type or cysteine mutants) expressed in HEK293T, solubilized in DDM/CHS; Superdex 200 Increase 10/300 GL, 25 mM tris-HCl, 150 mM NaCl, pH 7.5, 0.025% DDM/CHS; no reducing agent

B1: ROM1 C153S (human) (natural protein)
chain: not shown
notes: rod outer segment membrane protein 1 (ROM1), human, full length, mutant made by site-directed mutagenesis; source: HEK293T, transiently transfected, solubilized in DDM/CHS
B1 was tested, and the “stoichiometry N” value was 2.
